From the supplement of paper PMC4604168 (melanoma cell lines)
This is one part of the list. Many values rest on one well or one pass, so single values are uncertain.

Columns and labels:
Test in all cases: cell count relative to DMSO control; melanoma cells; higher = more viable cells
Conditions in all cases: library dose: standard library concentration; 72 h
[1] = test system: G361
[2] = test system: IPC-298
[3] = test system: IST-MEL1
[4] = test system: LB2518-MEL
[5] = test system: LOXIMVI
[6] = test system: MEL-HO
[7] = test system: MZ2-MEL
[8] = test system: MeWo
[9] = test system: RPMI7951
[10] = test system: RVH-421
[11] = test system: SkMel28
[12] = test system: SkMel2
[13] = test system: SkMel30
[14] = test system: SkMel5
[15] = test system: UACC257
[16] = test system: UACC62
[17] = test system: WM115
[18] = test system: WM1716
[19] = test system: WM1745
[20] = test system: WM3526
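Further: cells treated in 1,536-well plates, then fixed and DAPI-stained, with nuclei counted from automated high-throughput microscope images.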

Structure (SMILES) | cell count [1] [%] | cell count [2] [%] | cell count [3] [%] | cell count [4] [%] | cell count [5] [%] | cell count [6] [%] | cell count [7] [%] | cell count [8] [%] | cell count [9] [%] | cell count [10] [%] | cell count [11] [%] | cell count [12] [%] | cell count [13] [%] | cell count [14] [%] | cell count [15] [%] | cell count [16] [%] | cell count [17] [%] | cell count [18] [%] | cell count [19] [%] | cell count [20] [%]
Nc1ncn([C@H]2C[C@H](O)[C@@H](CO)O2)c(=O)n1 [decitabine] + C[C@@H]1CCN(C(=O)CC#N)C[C@@H]1N(C)c1ncnc2[nH]ccc12 [CP690550] (first compound 0.5 µM, partner dose 5 µM) | 65.7 | 55.7 | 203 | 66.1 | 62.9 | 80.2 | 83.4 | 66.1 | 64.1 | 84.2 | 75.8 | 76.2 | 108 | 57.6 | 97.1 | 81 | 61.3 | 78.4 | 62 | 94.8
CC(=O)O[C@@]12CO[C@@H]1C[C@H](O)[C@@]1(C)C(=O)[C@H](O)C3=C(C)[C@@H](OC(=O)[C@H](O)[C@@H](NC(=O)OC(C)(C)C)c4ccccc4)C[C@@](O)([C@@H](OC(=O)c4ccccc4)[C@H]21)C3(C)C [Docetaxel] + CCCS(=O)(=O)Nc1ccc(F)c(C(=O)c2c[nH]c3ncc(Cl)cc23)c1F [PLX4720] (first compound 0.0005 µM, partner dose 0.4 µM) | 16.6 | 39.1 | 40.5 | 43.1 | 83.5 | 43.5 | 40 | 22.3 | 28 | 63.7 | 17.5 | 23.8 | 49.4 | 51.7 | 74 | 40.5 | 39.5 | 37.9 | 44.8 | 38
CC(=O)O[C@@]12CO[C@@H]1C[C@H](O)[C@@]1(C)C(=O)[C@H](O)C3=C(C)[C@@H](OC(=O)[C@H](O)[C@@H](NC(=O)OC(C)(C)C)c4ccccc4)C[C@@](O)([C@@H](OC(=O)c4ccccc4)[C@H]21)C3(C)C [Docetaxel] + C=C(c1ccc(C(=O)O)cc1)c1cc2c(cc1C)C(C)(C)CCC2(C)C [Bexarotene] (first compound 0.0005 µM, partner dose 10 µM) | 18.6 | 45.1 | 45.5 | 49.9 | 39 | 41.8 | 37 | 31.3 | 27.7 | 40 | 13.6 | 14.9 | 33.7 | 45 | 53.7 | 51.9 | 39.8 | 28.9 | 26 | 34.3
Nc1ncn([C@H]2C[C@H](O)[C@@H](CO)O2)c(=O)n1 [decitabine] + CC(=O)c1c(C)c2cnc(Nc3ccc(N4CCNCC4)cn3)nc2n(C2CCCC2)c1=O [palbociclib] (first compound 0.5 µM, partner dose 0.2 µM) | 70.5 | 55.4 | 70.9 | 54.5 | 65.7 | 58.1 | 60.9 | 50.3 | 60.4 | 53.5 | 49.3 | 61.8 | 76.5 | 64.9 | 85.5 | 60.1 | 49.3 | 47.1 | 62.5 | 56.9
CC(=O)O[C@@]12CO[C@@H]1C[C@H](O)[C@@]1(C)C(=O)[C@H](O)C3=C(C)[C@@H](OC(=O)[C@H](O)[C@@H](NC(=O)OC(C)(C)C)c4ccccc4)C[C@@](O)([C@@H](OC(=O)c4ccccc4)[C@H]21)C3(C)C [Docetaxel] + C=CCNC1=C2C[C@@H](C)C[C@H](OC)[C@H](O)[C@@H](C)/C=C(\C)[C@H](OC(N)=O)[C@@H](OC)/C=C\C=C(/C)C(=O)NC(=CC1=O)C2=O [Tanespimycin] (first compound 0.0005 µM, partner dose 0.01 µM) | 9.44 | 35.6 | 23.8 | 46.5 | 58 | 27 | 32.4 | 15.5 | 15.7 | 45.8 | 12 | 13.5 | 47.8 | 37.4 | 70.7 | 39 | 26.8 | 35.3 | 44.7 | 45.1
Nc1ccn([C@@H]2O[C@H](CO)[C@@H](O)C2(F)F)c(=O)n1 [gemcitabine] + Clc1ccc(Nc2nnc(Cc3ccncc3)c3ccccc23)cc1 [vatalanib] (first compound 0.002 µM, partner dose 10 µM) | 47.8 | 31.4 | 39.7 | 59 | 79.8 | 38.7 | 50.3 | 43.2 | 56.1 | 56.3 | 61.1 | 65.6 | 71.5 | 60.8 | 65.5 | 72.8 | 63.5 | 58.1 | 37.6 | 75.2
CC(=O)O[C@@]12CO[C@@H]1C[C@H](O)[C@@]1(C)C(=O)[C@H](O)C3=C(C)[C@@H](OC(=O)[C@H](O)[C@@H](NC(=O)OC(C)(C)C)c4ccccc4)C[C@@](O)([C@@H](OC(=O)c4ccccc4)[C@H]21)C3(C)C [Docetaxel] + C[C@@H](Oc1cc(-c2cnn(C3CCNCC3)c2)cnc1N)c1c(Cl)ccc(F)c1Cl [Crizotinib] (first compound 0.0005 µM, partner dose 1 µM) | 19 | 42.3 | 33.3 | 45.5 | 87 | 45.3 | 46.5 | 31.6 | 40.5 | 48.7 | 26.7 | 29.9 | 63 | 33.1 | 71.4 | 57.7 | 42.9 | 35.4 | 43 | 41.8
